Assay results reported in the supplement of paper PMC10126150.
Sequences with one replicate were seen in a single cluster, so their values are uncertain.

These sequences were tested on ATP (assay: switch fluorescence ratio, 500 uM ATP over buffer (Cy3 cluster intensity, sum of 5 cycles each) (fold (ratio)); higher = stronger signal-on switching upon ATP binding; sequences stand for … in TCGTCGGCAGCGTCAGATGTGTATAAGAGACAGTTTTTTTTTTTTTTTTTTTTTTTTT…TC). Conditions: aptamer strand: ATP DNA aptamer (quencher-CACCTGGGGGAGTATTGCGGAGGAAGG + anchor), 100 nM annealed; ATP concentration: 500 uM; one replicate.
Procedure, shortened: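 For every switch-domain sequence, the fluorescence ratio is the mean of per-cluster values, each being summed target-cycle Cy3 intensity over summed buffer-cycle Cy3 intensity. Clusters outside 100-1000 RFU were excluded. On a modified Illumina MiSeq flow-cell, the Cy3-labelled switching-strand clusters were annealed to 100 nM quencher-labelled ATP aptamer, imaged in selection buffer and then after 15 min with 500 uM ATP at 22 °C. Five such cycles were run, with NaOH stripping and re-annealing between them.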
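Also: ATP exposure 15 min at 22 °C before imaging.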

**Q.** With TAGCAAAC as the sequence, how does the switch fluorescence ratio read?
**A.** 4.36

**Q.** With TGCCGGTGAA as the sequence, how does the switch fluorescence ratio read?
**A.** 1.04

**Q.** With GTAGGATTG as the sequence, how does the switch fluorescence ratio read?
**A.** 0.999

**Q.** GGGTACCGAT was tested. Which switch fluorescence ratio did it give?
**A.** 1.03

**Q.** With TTACAACGAT as the sequence, how does the switch fluorescence ratio read?
**A.** 0.968

**Q.** Which switch fluorescence ratio does the source give for AATGGCTATC here?
**A.** 0.998

**Q.** How did the switch fluorescence ratio turn out when TAACCCTCGG was run?
**A.** 1.01

**Q.** GAGCGTAAAA was tested. Which switch fluorescence ratio did it give?
**A.** 0.983

**Q.** AAGGAGATTA was tested. Which switch fluorescence ratio did it give?
**A.** 1

**Q.** How did the switch fluorescence ratio turn out when CGGGCCCTGC was run?
**A.** 0.99

**Q.** Which switch fluorescence ratio does the source give for CTCAGCGGTA here?
**A.** 1.45

**Q.** TACCCGCGTG was tested. Which switch fluorescence ratio did it give?
**A.** 1

**Q.** With ACTTTATGAT as the sequence, how does the switch fluorescence ratio read?
**A.** 1

**Q.** Which switch fluorescence ratio does the source give for ACTAGGCTCA here?
**A.** 0.988

**Q.** ATGAGGTCTT was tested. Which switch fluorescence ratio did it give?
**A.** 1.02

**Q.** With TGCGCAAAGA as the sequence, how does the switch fluorescence ratio read?
**A.** 1.05

**Q.** With TCCGGAATAT as the sequence, how does the switch fluorescence ratio read?
**A.** 3.38

**Q.** With AGTCCTAGGA as the sequence, how does the switch fluorescence ratio read?
**A.** 1.01

**Q.** How did the switch fluorescence ratio turn out when TTTGTCGTGT was run?
**A.** 0.945

**Q.** How did the switch fluorescence ratio turn out when CCGTGCACAG was run?
**A.** 1.35

**Q.** For CCGAAAACAT, which switch fluorescence ratio is on record?
**A.** 1.06

**Q.** How did the switch fluorescence ratio turn out when GTGATACGTG was run?
**A.** 0.978

**Q.** How did the switch fluorescence ratio turn out when TTTGCGGCAA was run?
**A.** 1.05

**Q.** For GAGTCTGGAT, which switch fluorescence ratio is on record?
**A.** 1.05

**Q.** Which switch fluorescence ratio does the source give for TGCTCTCCCC here?
**A.** 1.08

**Q.** For TATGGGAAA, which switch fluorescence ratio is on record?
**A.** 0.991

**Q.** For CCAGTGAGAA, which switch fluorescence ratio is on record?
**A.** 1.02

**Q.** For ACAGTGATTT, which switch fluorescence ratio is on record?
**A.** 1.01

**Q.** For TCAAAAAGGC, which switch fluorescence ratio is on record?
**A.** 1.04

**Q.** Which switch fluorescence ratio does the source give for CTCTGAGGG here?
**A.** 1.45

**Q.** For TGCCAGTATG, which switch fluorescence ratio is on record?
**A.** 0.957

**Q.** For TCTGGATAGC, which switch fluorescence ratio is on record?
**A.** 1.09

**Q.** CTGGCTGGC was tested. Which switch fluorescence ratio did it give?
**A.** 1.16

**Q.** Which switch fluorescence ratio does the source give for CGGTGGCAGT here?
**A.** 1

**Q.** For CGCTAGCCAC, which switch fluorescence ratio is on record?
**A.** 1.29

**Q.** AGGTGACGGC was tested. Which switch fluorescence ratio did it give?
**A.** 1.03

**Q.** CAAATGTTAC was tested. Which switch fluorescence ratio did it give?
**A.** 1.05

**Q.** Which switch fluorescence ratio does the source give for CAAGCGGCTA here?
**A.** 1.04

**Q.** For ATGATTGC, which switch fluorescence ratio is on record?
**A.** 0.988

**Q.** For CACTCAATTT, which switch fluorescence ratio is on record?
**A.** 1.01

**Q.** With AAGTAACGCA as the sequence, how does the switch fluorescence ratio read?
**A.** 1.05

**Q.** How did the switch fluorescence ratio turn out when TCTGCACGTA was run?
**A.** 1.12

**Q.** How did the switch fluorescence ratio turn out when GACGTTAGGA was run?
**A.** 0.975

**Q.** For TAGTTCAATA, which switch fluorescence ratio is on record?
**A.** 0.989

**Q.** AGCAAATGT was tested. Which switch fluorescence ratio did it give?
**A.** 1.03

**Q.** With TGAAAGCTTT as the sequence, how does the switch fluorescence ratio read?
**A.** 1.03

**Q.** ACTTTCGTCT was tested. Which switch fluorescence ratio did it give?
**A.** 1.08

**Q.** With GAGGGCATCG as the sequence, how does the switch fluorescence ratio read?
**A.** 0.979

**Q.** GTCGAGCTGA was tested. Which switch fluorescence ratio did it give?
**A.** 1.03

**Q.** How did the switch fluorescence ratio turn out when ATCCGGAGTG was run?
**A.** 1.18

**Q.** GACCATCGCT was tested. Which switch fluorescence ratio did it give?
**A.** 1.04

**Q.** How did the switch fluorescence ratio turn out when CATAAGCA was run?
**A.** 1.09

**Q.** How did the switch fluorescence ratio turn out when AACAGGTAAG was run?
**A.** 1.43

**Q.** Which switch fluorescence ratio does the source give for AGTTGAATGA here?
**A.** 1.06

**Q.** Which switch fluorescence ratio does the source give for GACTGGGGTG here?
**A.** 1.05

**Q.** With TGCATCTTA as the sequence, how does the switch fluorescence ratio read?
**A.** 1

**Q.** For AAAGAAGTGA, which switch fluorescence ratio is on record?
**A.** 0.968

**Q.** With ACACAGGGAG as the sequence, how does the switch fluorescence ratio read?
**A.** 1.04

**Q.** TAACGCGGGG was tested. Which switch fluorescence ratio did it give?
**A.** 1.04

**Q.** TTGACGTCTT was tested. Which switch fluorescence ratio did it give?
**A.** 0.952

**Q.** How did the switch fluorescence ratio turn out when CACGTATCGA was run?
**A.** 1.08

**Q.** For AGGTTTATGG, which switch fluorescence ratio is on record?
**A.** 1.01

**Q.** Which switch fluorescence ratio does the source give for GCCCGTACAT here?
**A.** 0.958

**Q.** For GTTATCGTGT, which switch fluorescence ratio is on record?
**A.** 0.972

**Q.** With CGTGCGCAGA as the sequence, how does the switch fluorescence ratio read?
**A.** 1.39

**Q.** AACATTACGT was tested. Which switch fluorescence ratio did it give?
**A.** 1.36

**Q.** CGTGAAGCTC was tested. Which switch fluorescence ratio did it give?
**A.** 1.07

**Q.** Which switch fluorescence ratio does the source give for GAGTTTCCCA here?
**A.** 0.993

**Q.** For GTAATTTTTA, which switch fluorescence ratio is on record?
**A.** 0.982

**Q.** CCAAGTTCCG was tested. Which switch fluorescence ratio did it give?
**A.** 0.991

**Q.** How did the switch fluorescence ratio turn out when CTTAATTGTG was run?
**A.** 1.02

**Q.** How did the switch fluorescence ratio turn out when CTGTATTGGT was run?
**A.** 1.04

**Q.** With GGTATTGAA as the sequence, how does the switch fluorescence ratio read?
**A.** 0.988

**Q.** Which switch fluorescence ratio does the source give for AAACGTTATT here?
**A.** 1.08

**Q.** Which switch fluorescence ratio does the source give for CTGGTTAAAT here?
**A.** 1.01

**Q.** For CATCCGAGCG, which switch fluorescence ratio is on record?
**A.** 1.62

**Q.** Which switch fluorescence ratio does the source give for GGTGTAAACA here?
**A.** 1.03

**Q.** How did the switch fluorescence ratio turn out when GAAGCCTCTA was run?
**A.** 1.03

**Q.** For TTAAGCGCTG, which switch fluorescence ratio is on record?
**A.** 1

**Q.** With AGTCTCAGAA as the sequence, how does the switch fluorescence ratio read?
**A.** 0.932

**Q.** For CCTAGGGAGA, which switch fluorescence ratio is on record?
**A.** 1.01

**Q.** Which switch fluorescence ratio does the source give for GATTCAGGTG here?
**A.** 2.82

**Q.** For CCAATTTTTT, which switch fluorescence ratio is on record?
**A.** 1.03

**Q.** How did the switch fluorescence ratio turn out when CATTACACGG was run?
**A.** 1.01

**Q.** GGATCAAGGC was tested. Which switch fluorescence ratio did it give?
**A.** 1.26
